The full ranking holds about 81,000 sequences; the median of “one-hybrid fitness for binding NBS DNA” is about -0.1, and the highest 2% start at about 0.36. Some of the results follow.
B1: Caulobacter ParB omega fusion; a variant is named by its letters at X, in order, B8GW30 (parent)
chain: MESVVVGEPGMSEGRRGLGRGLSALLGEVDAAPAQAPGEQLGGSREAPIEILQRNPDQPRRTFREEDLEDLSNSIREKGVLQPILVRPSPDTAGEYQIVAGERAWRAAQRAGLKTVPIMVRELDDLAVLEIGIIENVQRADLNVLEEALSYKVLMEKFERTQENIAQTIGKSXSHVANXMRLLXLPDEVQSYLVSGELTAXHARAIAAAADPVALAKQIIEGGLSVRETEALARKAPNLSAGKSKGGRPPRVKDTDTQALESDLSSVLGLDVSIDHRGSTGTLTITYATLEQLDDLCNRLTRGI

Variants of: B1
Assay: one-hybrid fitness for binding NBS DNA (the Noc-binding site; scaled: cognate 1, non-cognate 0); higher = stronger binding
Settings: with NBS DNA site
In short: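 On M9-minus-histidine containing 0.1 mM IPTG and 5 mM 3-AT, E. coli USO cells with a HIS3 reporter, site 19 bp from the promoter, grew 48 hours at 37°C to select Caulobacter ParB libraries randomised at four specificity codons. Plasmids from before and after were Illumina-sequenced, with three replicate libraries pooled and variants under 10 reads left out. Fitness is the log change in variant-to-wild-type read ratio, rescaled against cognate and non-cognate.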

Variant	one-hybrid fitness for binding NBS DNA
TIQI	≤ 0.2
QMIE	≤ 0.2
YSDV	≤ 0.2
RQSF	≤ 0.2
VASI	≤ 0.2
RAIF	≤ 0.2
HEGR	≤ 0.2
CIQS	≤ 0.2
PWYI	≤ 0.2
QSWY	≤ 0.2
WAPR	≤ 0.2
PWAW	≤ 0.2
LQGM	≤ 0.2
SLST	≤ 0.2
QDGL	≤ 0.2
INIY	≤ 0.2
CLGA	≤ 0.2
RMAL	≤ 0.2
DRMR	≤ 0.2
VLYW	≤ 0.2
QRRI	0.43
RDIR	≤ 0.2
AADE	≤ 0.2
ERLC	≤ 0.2

Variant	one-hybrid fitness for binding NBS DNA
QEWA	≤ 0.2
WGVG	≤ 0.2
LITE	≤ 0.2
TNNR	≤ 0.2
SAKS	≤ 0.2
FAGV	≤ 0.2
PIYV	≤ 0.2
MLHK	≤ 0.2
LTKF	≤ 0.2
VSRT	≤ 0.2
KTWL	≤ 0.2
PQPK	≤ 0.2
HTCT	≤ 0.2
LGNC	≤ 0.2
DYSG	≤ 0.2
ITLR	≤ 0.2
YKPV	≤ 0.2
QRLW	0.215
ASLY	≤ 0.2
PYSF	≤ 0.2
QCMA	0.303
EGMD	≤ 0.2
TIEM	≤ 0.2
SCAA	≤ 0.2

Variant	one-hybrid fitness for binding NBS DNA
NDER	≤ 0.2
RYFD	≤ 0.2
QCGD	≤ 0.2
YRCR	≤ 0.2
RIIP	≤ 0.2
LMSC	≤ 0.2
EVDG	≤ 0.2
TTGE	≤ 0.2
DTRV	≤ 0.2
IKMS	≤ 0.2
NRMS	≤ 0.2
MYPK	≤ 0.2
EMKP	≤ 0.2
VTHC	≤ 0.2
LRNR	0.244
STVG	≤ 0.2
LTQI	≤ 0.2
PRME	≤ 0.2
DSEC	≤ 0.2
YLFE	≤ 0.2
EVAC	≤ 0.2
HSIR	≤ 0.2
GCNT	≤ 0.2
DAFN	≤ 0.2

Variant	one-hybrid fitness for binding NBS DNA
MFKR	≤ 0.2
TDST	≤ 0.2
GRDS	≤ 0.2
PHIC	≤ 0.2
MHRR	≤ 0.2
GVWK	≤ 0.2
HMTW	≤ 0.2
QSYE	≤ 0.2
PTRE	≤ 0.2
DRST	≤ 0.2
RYCS	0.395
TEFG	≤ 0.2
APRF	≤ 0.2
LDFG	≤ 0.2
YRKA	≤ 0.2
RPLP	≤ 0.2
TPTV	≤ 0.2
VTWC	≤ 0.2
WACN	≤ 0.2
HVAR	≤ 0.2
HPKG	≤ 0.2
LYMV	≤ 0.2
HVLG	≤ 0.2
PMTR	≤ 0.2

Variant	one-hybrid fitness for binding NBS DNA
SRGS	≤ 0.2
STET	≤ 0.2
ARFE	≤ 0.2
YLCR	≤ 0.2
MWPR	≤ 0.2
PNYS	≤ 0.2
DHWC	≤ 0.2
SQIG	≤ 0.2
NESV	≤ 0.2
VWSA	≤ 0.2
TIIQ	≤ 0.2
NFEC	≤ 0.2
GRIY	≤ 0.2
AKRP	≤ 0.2
TSDM	≤ 0.2
PMLF	≤ 0.2
NRPR	≤ 0.2
SQSG	≤ 0.2
ALNW	≤ 0.2
WTGG	≤ 0.2
GTNS	≤ 0.2
RTQQ	≤ 0.2
GFTS	≤ 0.2
RPFV	≤ 0.2

Variant	one-hybrid fitness for binding NBS DNA
LDIR	≤ 0.2
EAFT	≤ 0.2
ANLR	≤ 0.2
QAHR	0.541
QEKT	≤ 0.2
KPSW	≤ 0.2
SYTL	≤ 0.2
GEDK	≤ 0.2
TMMC	≤ 0.2
FRAN	≤ 0.2
EGRR	≤ 0.2
PSNI	≤ 0.2
KHEC	≤ 0.2
QAWR	0.348
CAGR	≤ 0.2
MDVC	≤ 0.2
RMTF	≤ 0.2
RGDG	≤ 0.2
NYYW	≤ 0.2
AAYT	≤ 0.2
AVMD	≤ 0.2
SYIK	≤ 0.2
TTHR	≤ 0.2
MAPM	≤ 0.2

Variant	one-hybrid fitness for binding NBS DNA
SQRI	≤ 0.2
AHWS	≤ 0.2
LYLN	≤ 0.2
LSKI	≤ 0.2
WSDR	≤ 0.2
RPPW	≤ 0.2
IMPI	≤ 0.2
IIEY	≤ 0.2
NPCL	≤ 0.2
SLGF	≤ 0.2
ISGW	≤ 0.2
RACP	≤ 0.2
YAKC	≤ 0.2
QSLV	≤ 0.2
SERK	≤ 0.2
QHHG	≤ 0.2
FMQS	≤ 0.2
FCDR	≤ 0.2
FPPV	≤ 0.2
TPFS	≤ 0.2
NLMS	≤ 0.2
NAVI	≤ 0.2
VRGI	≤ 0.2
PPHA	≤ 0.2

Variant	one-hybrid fitness for binding NBS DNA
VGQG	≤ 0.2
QNFY	≤ 0.2
PNQC	≤ 0.2
THEC	≤ 0.2
AWVG	≤ 0.2
KPTR	≤ 0.2
QKND	≤ 0.2
SRPD	≤ 0.2
FLDD	≤ 0.2
YRSN	≤ 0.2
HREC	≤ 0.2
RWLH	≤ 0.2
MYAR	≤ 0.2
GLCS	≤ 0.2
RNRN	≤ 0.2
LVRW	≤ 0.2
KTGY	≤ 0.2
ITKT	≤ 0.2
QWQC	≤ 0.2
TLTM	≤ 0.2
RWHR	≤ 0.2
STTE	≤ 0.2
AHPT	≤ 0.2
PCDL	≤ 0.2

Variant	one-hybrid fitness for binding NBS DNA
ITRW	≤ 0.2
LHTY	≤ 0.2
AQHC	≤ 0.2
NLPS	≤ 0.2
LGTS	≤ 0.2
SYGI	≤ 0.2
VYSV	≤ 0.2
MTTL	≤ 0.2
HLMR	≤ 0.2
ENGS	≤ 0.2
QKRH	0.579
WEPT	≤ 0.2
TGHP	≤ 0.2
SVNL	≤ 0.2
CETL	≤ 0.2
YFQV	≤ 0.2
HFPF	≤ 0.2
PGPQ	≤ 0.2
AMVT	≤ 0.2
PHCN	≤ 0.2
HASC	≤ 0.2
FERS	≤ 0.2
QVKG	≤ 0.2
QLSD	≤ 0.2

Variant	one-hybrid fitness for binding NBS DNA
QWMA	≤ 0.2
AFMG	≤ 0.2
WIDE	≤ 0.2
RRHR	0.771
CMAT	≤ 0.2
ISAW	≤ 0.2
LGCI	≤ 0.2
LPLM	≤ 0.2
DRSV	≤ 0.2
DLYA	≤ 0.2
YPLH	≤ 0.2
PFRV	≤ 0.2
PMNT	≤ 0.2
NDLV	≤ 0.2
LIKH	≤ 0.2
SCYH	≤ 0.2
QITI	≤ 0.2
ETEC	≤ 0.2
QWSW	≤ 0.2
ALNP	≤ 0.2
YQRR	≤ 0.2
GPRI	≤ 0.2
RKGM	0.218
VSVS	≤ 0.2

Variant	one-hybrid fitness for binding NBS DNA
TRNL	≤ 0.2
YCMF	≤ 0.2
SIIA	≤ 0.2
VRDR	≤ 0.2
WWHS	≤ 0.2
PTFH	≤ 0.2
VMRA	≤ 0.2
NRSF	≤ 0.2
LSLI	≤ 0.2
QHRC	0.344
HNTL	≤ 0.2
HLNT	≤ 0.2
MKRV	≤ 0.2
KTML	≤ 0.2
YCNR	≤ 0.2
LIVS	≤ 0.2
SQRY	≤ 0.2
IPWS	≤ 0.2
MNKC	≤ 0.2
ISQR	≤ 0.2
ELTQ	≤ 0.2
TCEC	≤ 0.2
VDTS	≤ 0.2
PSRV	≤ 0.2

Variant	one-hybrid fitness for binding NBS DNA
ILLR	≤ 0.2
CAKR	≤ 0.2
LTRM	≤ 0.2
RPDN	≤ 0.2
RPLE	≤ 0.2
LKPR	≤ 0.2
EGPL	≤ 0.2
HLFG	≤ 0.2
TSHD	≤ 0.2
LRLA	≤ 0.2
RGPH	≤ 0.2
LSIF	≤ 0.2
ETRI	≤ 0.2
PEPT	≤ 0.2
RVHK	≤ 0.2
YATT	≤ 0.2
DLGS	≤ 0.2
EAKW	≤ 0.2
LVNC	≤ 0.2
WWAK	≤ 0.2
ATGR	≤ 0.2
EAHT	≤ 0.2
VLPK	≤ 0.2
LWNE	≤ 0.2

Variant	one-hybrid fitness for binding NBS DNA
RCQM	≤ 0.2
KLLS	≤ 0.2
SKGD	≤ 0.2
KVKG	≤ 0.2
QAQW	≤ 0.2
RKHY	0.278
MAVC	≤ 0.2
EQLF	≤ 0.2
PSKP	≤ 0.2
LSVT	≤ 0.2
YTAM	≤ 0.2
AGLM	≤ 0.2
ADCV	≤ 0.2
KWTC	≤ 0.2
MSRW	≤ 0.2
PDSN	≤ 0.2
FIWV	≤ 0.2
PAIK	≤ 0.2
